Data: publication PMC11995724, “Antibiotic target discovery by integrated phenotypic and activity-based profiling of electrophilic fragments” (Cell chemical biology, 2025)
Among all 3,200 compounds or so, about 75 (2%) showed an effect of 50% or more. Some of the results follow.

System: T1, S. aureus MSSA476
T1 construct: MSSA476
Design: species or system S. aureus MSSA476 (TSB) or V. cholerae SAD30 (LB); 384-well bacterial growth screen at 25 uM, OD600 relative to DMSO control
Conditions: relative growth, OD600, TSB; 25 µM; inhibitor

Compound | % of control remaining [%]
C=CC(=O)N1CSCC1C(=O)N(C)C (centres unmarked) [1-G03, N,N-dimethyl-3-(prop-2-enoyl)-1,3-thiazolidine-4-carboxamide] | 84.044
CC(Cl)C(=O)Nc1cccc([N+](=O)[O-])c1 (centres unmarked) [6-E08, 2-chloro-N-(3-nitrophenyl)propanamide] | 83.6585
COc1ccc(OC)c(N2C(=O)C=CC2=O)c1 [10-N15, 1-(2,5-dimethoxyphenyl)-2,5-dihydro-1H-pyrrole-2,5-dione] | 125
Cc1noc(C)c1CN(C(=O)CCl)C1CC1 [7-B05, 2-chloro-N-cyclopropyl-N-[(3,5-dimethyl-1,2-oxazol-4-yl)methyl]acetamide] | 93.2496
C=CC(=O)N(C)CC(=O)Nc1ccc(N2CCC(O)CC2)cc1 [3-P06, N-({[4-(4-hydroxypiperidin-1-yl)phenyl]carbamoyl}methyl)-N-methylprop-2-enamide] | 86.3735
O=C(CCl)NC(Cc1ccccc1)c1ccccc1 (centres unmarked) [4-L11, 2-chloro-N-(1,2-diphenylethyl)acetamide] | 117.77
CN1C(=O)c2ccccc2C1CNC(=O)CCl (centres unmarked) [7-B10, 2-chloro-N-[(2-methyl-3-oxo-2,3-dihydro-1H-isoindol-1-yl)methyl]acetamide] | 93.8776
Cc1cccc(C=C(C#N)C(=O)Nc2ccc(C(=O)O)cc2)c1 [8-M21, 4-[2-cyano-3-(3-methylphenyl)prop-2-enamido]benzoic acid] | 95.6017
C=CC(=O)NCc1ccc(C(=O)N2CCC(NC(C)=O)CC2)cc1 [2-A12, N-{[4-(4-acetamidopiperidine-1-carbonyl)phenyl]methyl}prop-2-enamide] | 114.534
C=CC(=O)NCc1cnc2ccsc2c1 [2-D11, N-({thieno[3,2-b]pyridin-6-yl}methyl)prop-2-enamide] | 105.831
Cc1ccc(NC(=O)C(C)Cl)cc1 (centres unmarked) [4-J15, 2-chloro-N-(4-methylphenyl)propanamide] | 78.5136
CC(Cl)C(=O)N1CCCc2c1ccc1c2ncn1C (centres unmarked) [6-B19, 2-chloro-1-{3-methyl-3H,6H,7H,8H,9H-imidazo[4,5-f]quinolin-6-yl}propan-1-one] | 75.4634
CC(Cl)C(=O)N1CCc2oc(-c3ccccc3)cc2C1 (centres unmarked) [6-B21, 2-chloro-1-{2-phenyl-4H,5H,6H,7H-furo[3,2-c]pyridin-5-yl}propan-1-one] | 78.1951
CC(Cl)C(=O)NC1CC(=O)N(Cc2ccccc2C(F)(F)F)C1 (centres unmarked) [6-J19, 2-chloro-N-(5-oxo-1-{[2-(trifluoromethyl)phenyl]methyl}pyrrolidin-3-yl)propanamide] | 108.585
Cc1c(Cl)cccc1NC(=O)C(C)Cl (centres unmarked) [6-I10, 2-chloro-N-(3-chloro-2-methylphenyl)propanamide] | 94.5854
CC(Cl)C(=O)N1CCN(C(=O)c2cccc(OC(F)F)c2)CC1 (centres unmarked) [5-F17, 2-chloro-1-{4-[3-(difluoromethoxy)benzoyl]piperazin-1-yl}propan-1-one] | 115.847
N#CC(=Cc1c[nH]c2ccccc12)C(=O)Nc1cccc2ncccc12 [9-N08, 2-cyano-3-(1H-indol-3-yl)-N-(quinolin-5-yl)prop-2-enamide] | 101.873
CC(Cl)C(=O)Nc1c(C(C)C)cccc1C(C)C (centres unmarked) [4-B15, N-[2,6-bis(propan-2-yl)phenyl]-2-chloropropanamide] | 128.442
COc1cc(CN(C(=O)CCl)C2CCCOC2)ccc1C (centres unmarked) [5-E12, 2-chloro-N-[(3-methoxy-4-methylphenyl)methyl]-N-(oxan-3-yl)acetamide] | 147.541
N#CC(=Cc1cnn(-c2ccc(Cl)cc2)c1)C(=O)NC1CCCC1 [8-M10, 3-[1-(4-chlorophenyl)-1H-pyrazol-4-yl]-2-cyano-N-cyclopentylprop-2-enamide] | 103.568
C=CC(=O)NC(CO)c1cccc(OC)c1 (centres unmarked) [2-E22, N-[2-hydroxy-1-(3-methoxyphenyl)ethyl]prop-2-enamide] | 95.7354
C=CC(=O)Nc1ccc(C(C)CC(N)=O)cc1 (centres unmarked) [1-I16, 3-[4-(prop-2-enamido)phenyl]butanamide] | 123.429
C=CC(=O)N1CCC(c2ccc(OC)c(F)c2)C1 (centres unmarked) [3-K19, 1-[3-(3-fluoro-4-methoxyphenyl)pyrrolidin-1-yl]prop-2-en-1-one] | 111.798
Cc1csc(COC2CCN(C(=O)CCl)C2)n1 (centres unmarked) [5-M08, 2-chloro-1-{3-[(4-methyl-1,3-thiazol-2-yl)methoxy]pyrrolidin-1-yl}ethan-1-one] | 97.2678

Compound | % of control remaining [%]
C=CC(=O)N1CCCC1Cn1c(C)nc2ccccc21 (centres unmarked) [1-J05, 1-{2-[(2-methyl-1H-1,3-benzodiazol-1-yl)methyl]pyrrolidin-1-yl}prop-2-en-1-one] | 123.429
Cl.O=C(CCl)NC1c2ccccc2CCC1n1ccnc1 (centres unmarked) [7-N14, 2-chloro-N-[2-(1H-imidazol-1-yl)-1,2,3,4-tetrahydronaphthalen-1-yl]acetamide hydrochloride] | 71.8995
Cc1oc(C(N)=O)cc1C(=O)CCl [10-M05, 4-(2-chloroacetyl)-5-methylfuran-2-carboxamide] | 125.938
N#CC(=Cc1ccc(O)cc1)C(=O)NCc1ccco1 [9-N10, 2-cyano-N-[(furan-2-yl)methyl]-3-(4-hydroxyphenyl)prop-2-enamide] | 90.1873
CC(Cl)C(=O)NC1CCCCCC1 (centres unmarked) [5-O21, 2-chloro-N-cycloheptylpropanamide] | 92.8962
CCN(Cc1cccs1)C(=O)CCl [5-F07, 2-chloro-N-ethyl-N-[(thiophen-2-yl)methyl]acetamide] | 81.2386
O=C(CCl)c1cn(-c2ccc(F)cc2)nn1 [10-F05] | 0
C=CC(=O)NCc1ccc(C(=O)N2CCNC(=O)CC2)cc1 [3-I04, N-{[4-(5-oxo-1,4-diazepane-1-carbonyl)phenyl]methyl}prop-2-enamide] | 99.2599
COc1ccc(NC(=O)C(C#N)=Cc2cccc(Cl)c2Cl)cc1 [8-N04, 2-cyano-3-(2,3-dichlorophenyl)-N-(4-methoxyphenyl)prop-2-enamide] | 107.22
Cc1cc(C)cc(OCCN(C)C(=O)CCl)c1 [6-F03, 2-chloro-N-[2-(3,5-dimethylphenoxy)ethyl]-N-methylacetamide] | 81.2683
O=C(CCl)Cc1ccc(C(F)(F)F)cc1 [10-C19, 1-chloro-3-[4-(trifluoromethyl)phenyl]propan-2-one] | 133.125
C=CC(=O)N1CCN(c2nc(CC)ns2)CC1 [1-J20, 1-[4-(3-ethyl-1,2,4-thiadiazol-5-yl)piperazin-1-yl]prop-2-en-1-one] | 122.374
CC(=O)c1cccc(S(=O)(=O)N2CCN(C(=O)CCl)CC2)c1 [4-F05, 1-[4-(3-acetylbenzenesulfonyl)piperazin-1-yl]-2-chloroethan-1-one] | 105.574
N#CC(=Cc1cccs1)C(=O)Nc1ccc(C(=O)O)cc1 [8-A04, 4-[2-cyano-3-(thiophen-2-yl)prop-2-enamido]benzoic acid] | 109.212
Cc1ccc(CN(Cc2c(C)noc2C)C(=O)CCl)c(C)c1 [5-N03, 2-chloro-N-[(3,5-dimethyl-1,2-oxazol-4-yl)methyl]-N-[(2,4-dimethylphenyl)methyl]acetamide] | 78.3242
O=C(CCl)NCCOc1cccc(F)c1 [6-G03, 2-chloro-N-[2-(3-fluorophenoxy)ethyl]acetamide] | 89.8049
COc1cccc(NC(=O)C(C#N)=Cc2csnn2)c1 [8-K04, 2-cyano-N-(3-methoxyphenyl)-3-(1,2,3-thiadiazol-4-yl)prop-2-enamide] | 135.768
O=C(CCl)NCC1CCCN(C(=O)C(F)(F)F)C1 (centres unmarked) [7-N18, 2-chloro-N-{[1-(2,2,2-trifluoroacetyl)piperidin-3-yl]methyl}acetamide] | 107.378
C=CC(=O)NCCC(=O)N1CCN(c2nc(C)cs2)C(C)C1 (centres unmarked) [2-F06, N-{3-[3-methyl-4-(4-methyl-1,3-thiazol-2-yl)piperazin-1-yl]-3-oxopropyl}prop-2-enamide] | 102.35
C=CC(=O)N1CCC(C(=O)N[C@H]2CCOc3c(F)cccc32)CC1 [3-F12, N-[(4S)-8-fluoro-3,4-dihydro-2H-1-benzopyran-4-yl]-1-(prop-2-enoyl)piperidine-4-carboxamide] | 107.27
C=CC(=O)NCc1cn(C)c2ccccc12 [1-G21, N-[(1-methyl-1H-indol-3-yl)methyl]prop-2-enamide] | 106.549
CC(Cl)C(=O)Nc1ccc(NC(=O)c2cccs2)cc1 (centres unmarked) [6-G07, N-[4-(2-chloropropanamido)phenyl]thiophene-2-carboxamide] | 112.683
CCCCNC(=O)C(C#N)=Cc1ccncc1 [8-P17, N-butyl-2-cyano-3-(pyridin-4-yl)prop-2-enamide] | 94.9378
